Results taken from PubChem BioAssay AID504332 (National Center for Advancing Translational Sciences (NCATS), 2011).
The whole screen tested about 350,000 compounds, of which about 31,000 (8.9%) were called active. This list was built around the results that the source calls inconclusive (neither active nor inactive); the mix of calls is not that of the screen. Calls follow the shape of the dose curve; as a rule, active = well fitted inhibition curve with a large enough effect; inconclusive = small, poorly fitted or top-dose-only effect; inactive = no such curve, though single readings can be large or run the other way. Potencies of inconclusive entries are doubtful fits and often do not repeat.

target: Histone-lysine N-methyltransferase EHMT2 (Homo sapiens) (UniProt Q96KQ7); assay: qHTS Assay for Inhibitors of Histone Lysine Methyltransferase G9a; conditions: G9a H3K9 monomethylation, AlphaScreen, 2 h; activity, negative = inhibition: at 59 µM (top of the series) unless noted; also: nearly all actives have a fitted effect of over 75% in size
How it was run: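 G9a (20 nM) preincubated 15 min RT with compounds, then 500 nM biotinylated H3K9 peptide and 20 uM SAM added; 2 h RT reaction. Monomethyl-H3K9 product detected by AlphaScreen with anti-H3K9me1 antibody, streptavidin donor and anti-rabbit IgG acceptor beads.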
% is scaled to controls: 0 for no effect and ±100 for the full control effect; potency is read from the fitted curve at half-maximal effect; tags tell the direction and shape of the fitted curve.

UniProt Q96KQ7, sequence (Q96KQ7 whole entry, looked up): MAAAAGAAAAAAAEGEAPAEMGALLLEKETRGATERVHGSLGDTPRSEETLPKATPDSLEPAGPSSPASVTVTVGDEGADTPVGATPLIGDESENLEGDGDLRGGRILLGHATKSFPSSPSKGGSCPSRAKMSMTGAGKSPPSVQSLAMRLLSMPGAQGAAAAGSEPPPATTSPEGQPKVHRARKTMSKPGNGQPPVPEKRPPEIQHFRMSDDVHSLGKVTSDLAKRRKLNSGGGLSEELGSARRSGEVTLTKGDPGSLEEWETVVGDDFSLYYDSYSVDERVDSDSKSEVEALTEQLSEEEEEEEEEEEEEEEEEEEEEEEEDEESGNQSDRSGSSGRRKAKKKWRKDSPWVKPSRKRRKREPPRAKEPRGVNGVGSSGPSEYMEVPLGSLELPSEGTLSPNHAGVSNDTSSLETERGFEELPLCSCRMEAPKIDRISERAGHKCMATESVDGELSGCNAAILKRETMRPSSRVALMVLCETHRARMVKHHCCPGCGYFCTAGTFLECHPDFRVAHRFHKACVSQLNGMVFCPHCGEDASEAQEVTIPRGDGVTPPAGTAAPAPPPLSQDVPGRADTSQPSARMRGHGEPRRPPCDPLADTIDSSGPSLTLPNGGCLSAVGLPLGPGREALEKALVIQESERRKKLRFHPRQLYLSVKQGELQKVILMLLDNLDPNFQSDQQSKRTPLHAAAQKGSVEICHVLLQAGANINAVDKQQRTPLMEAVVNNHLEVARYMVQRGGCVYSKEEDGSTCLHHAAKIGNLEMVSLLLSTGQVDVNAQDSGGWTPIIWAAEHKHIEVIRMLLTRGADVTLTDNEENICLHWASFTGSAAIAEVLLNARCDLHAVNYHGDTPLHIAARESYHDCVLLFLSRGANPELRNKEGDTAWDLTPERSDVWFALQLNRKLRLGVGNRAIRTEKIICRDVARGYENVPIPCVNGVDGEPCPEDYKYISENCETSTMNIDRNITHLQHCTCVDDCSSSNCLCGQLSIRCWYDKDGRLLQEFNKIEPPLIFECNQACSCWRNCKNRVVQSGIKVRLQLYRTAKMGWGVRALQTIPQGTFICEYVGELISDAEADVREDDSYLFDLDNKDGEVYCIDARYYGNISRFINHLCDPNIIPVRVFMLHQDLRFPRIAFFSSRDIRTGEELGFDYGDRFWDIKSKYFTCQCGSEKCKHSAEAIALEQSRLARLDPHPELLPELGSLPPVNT

| SMILES | Potency | activity, negative = inhibition |
| --- | --- | --- |
| CCCCC(CC)C(=O)Nc1ccc(Nc2ccccc2)cc1 (stereo not given) | inconclusive: 11.2 µM [inhibitor, partial curve, poor fit] | – |
| Cc1cc2c(cc1C)NC(c1c(C)n(C)n(-c3ccccc3)c1=O)C1=C(CC(C)(C)CC1=O)N2 (stereo not given) | inconclusive: 3.16 µM [inhibitor, single point] | – |
| COc1ccc(N2C(=O)CC(N3CCN(C4CCc5ccccc5C4)CC3)C2=O)cc1 (stereo not given) | inconclusive: 2 µM [inhibitor, full curve] | – |
| O=C(COc1cccnc1[N+](=O)[O-])Nc1ccc(Cl)c(S(=O)(=O)N2CCOCC2)c1 | inactive | – |
| Cc1ccc(-c2nc3c(c(=O)[nH]c(=O)n3Cc3ccccc3)n2C)o1 | active: 1.41 µM | – |
| CC(C)C1O/C(=N/C(=O)Nc2ccc(Cl)c(Cl)c2)NC1=O (stereo not given) | inactive | – |
| CCOC(=O)C1CN(S(=O)(=O)c2cccc(C(F)(F)F)c2)c2cc(CC(=O)OC)ccc2O1 (stereo not given) | – | inactive: -7.12% [at 12.7 µM] |
| NCCCC[C@@H]1NC(=O)c2cc([N+](=O)[O-])cc(I)c2SC[C@@H](C(N)=O)NC(=O)[C@H](Cc2ccc(O)cc2)NC1=O | active: 35.5 µM | – |
| COCCCNC(=O)Cc1ccccc1OC | inconclusive: 70.8 µM [inhibitor, partial curve, poor fit] | – |
| Cc1[nH]n(-c2ccccc2)c(=O)c1C(=O)c1ccc([N+](=O)[O-])cc1 | active: 50.1 µM | – |
| Cc1nc(N2CCN(C(=O)COc3ccccc3)CC2)c2c(C)c(C)sc2n1 | inconclusive: 11.2 µM [inhibitor, partial curve, poor fit] | – |
| COC(=O)c1ccc(C2/C(=C(/O)c3ccc(OC)cc3)C(=O)C(=O)N2CC2CCCO2)cc1 (stereo not given) | – | inactive: -31.3% [at 12.7 µM] |
| Cc1nc(NC(=O)c2cccc(-c3cc4ccccc4oc3=O)c2)ccc1Br | inactive | – |
| CCOc1cc(C(F)(F)F)cnc1/C(N)=N/O | inconclusive: 79.4 µM [inhibitor, partial curve, poor fit] | – |
| COc1ccc(-c2cn(-c3ccc(SC(F)F)cc3)c3[n+]2CCC3)cc1OC | inconclusive: 25.1 µM [inhibitor, single point] | – |
| O=C(O/N=C(\c1ccccc1)c1ccccn1)c1cccc2ccccc12 | inconclusive: 7.94 µM [inhibitor, full curve] | – |
| COc1ccc(-n2c(SCC(=O)Nc3ccc(Cl)cc3)nc(O)c(Cc3ccccc3)c2=O)cc1 | inconclusive: 50.1 µM [inhibitor, partial curve, poor fit] | – |
| O=C(c1cccc(S(=O)(=O)Nc2ccc(Br)cc2)c1)N1CCCC1 | inactive | – |
| CSc1ccc(NC(=O)Cn2nnnc2-c2ccccc2F)cc1 | inactive | – |
| COc1ccc(S(=O)(=O)NCC(c2ccco2)N2CCN(c3ccccc3F)CC2)cc1C (stereo not given) | inactive | – |
| COc1cc(/C=C/c2nc3cc(Cl)ccc3c(=O)n2-c2ccc(C)cc2C)cc(OC)c1OC | inactive | – |
| O=C(CCCC1=NS(=O)(=O)c2ccccc2N1)N1CCN(c2ccc(Cl)cc2)CC1 | inconclusive: 89.1 µM [inhibitor, single point] | – |
| Cc1csc(NC(=O)c2ccc(S(=O)(=O)N(C)c3ccccc3)cc2)n1 | inconclusive: 56.2 µM [inhibitor, partial curve, poor fit] | – |
| Cc1ccccc1Cn1ccc(NC(=O)c2nn3cccnc3c2Cl)n1 | inactive | – |

| SMILES | Potency | activity, negative = inhibition |
| --- | --- | --- |
| CCOC(=O)CN1CC23C=CC(O2)C(C(=O)NC2CCCCC2)C3C1=O (stereo not given) | inactive | – |
| CCOC(=O)c1c(C)oc2nc(C)nc(N3CCN(c4cccc(C)c4C)CC3)c12 | inconclusive: 10 µM [inhibitor, partial curve, poor fit] | – |
| O=C(c1ccc(C(F)(F)F)cc1)C1CCCN(C(=O)CN2CCCC2=O)C1 (stereo not given) | inconclusive: 56.2 µM [inhibitor, partial curve] | – |
| Nc1ccccc1-c1nc2ccccc2[nH]1 | inconclusive: 70.8 µM [inhibitor, single point] | – |
| COc1ccc(C(CNC(=O)c2oc3ccc(OC)cc3c2C)N2CCCC2)cc1 (stereo not given) | inconclusive: 79.4 µM [inhibitor, single point] | – |
| COc1ccc(N2CCN(S(=O)(=O)CCNC(=O)CCCc3ccccc3)CC2)cc1 | inconclusive: 79.4 µM [inhibitor, partial curve, poor fit] | – |
| COc1ccc(Cc2nnc(NC(=O)C3CCCO3)s2)cc1 (stereo not given) | inconclusive: 6.31 µM [inhibitor, single point] | – |
| Cc1ccc(-c2cnc(N)n2C)cc1C | inconclusive: 79.4 µM [inhibitor, single point] | – |
| Cc1cc(Br)ccc1OCCCCN1CCCCC1 | – | inconclusive: -89.8% [inhibitor] [at 12.7 µM] |
| O=C(O)CCSc1nnc(SCC(=O)NCC(F)(F)F)s1 | inconclusive: 39.8 µM [inhibitor, single point] | – |
| O=c1oc2c(CN3CCOCC3)c(O)ccc2c2ccccc12 | inconclusive: 3.16 µM [inhibitor, full curve, poor fit] | – |
| CCCCNC(=O)COC(=O)CCC(=O)c1cccs1 | inconclusive: 79.4 µM [inhibitor, single point] | – |
| COCCOc1ccc(C(F)(F)F)cc1NC(=O)CN1C(=O)NC2(CCc3ccccc32)C1=O (stereo not given) | – | inactive: 13.1% [at 0.501 µM] |
| O=C(N/N=C/c1ccc2ncccc2c1)c1cccc([N+](=O)[O-])c1 | active: 79.4 µM | – |
| O=C(NCCCN1CCCC1=O)C1CCN(S(=O)(=O)c2cc(C(F)(F)F)ccc2Cl)CC1 | inconclusive: 8.91 µM [inhibitor, single point] | – |
| COc1ccc(NC(=S)Nn2cnnc2)c(OC)c1 | active: 5.01 µM | – |
| Cc1cccc(/C=C(\C(=O)C(=O)O)c2ccc3ccccc3n2)c1 | inconclusive: 70.8 µM [inhibitor, partial curve, poor fit] | – |
| CC(NC(=O)c1cc(-c2ccc(Cl)cc2)on1)c1ccccc1 (stereo not given) | inactive | – |
| N#CC(=C1SC=CS1)c1nc(-c2ccccc2)cs1 | inconclusive: 12.6 µM [inhibitor, partial curve] | – |
| COc1ccc(Nc2ncnc3c2nc2n3CCCC2)cc1Cl | inactive | – |
| O=C(NCC(c1cccnc1)N1CCc2ccccc21)C(=O)Nc1ccccc1F (stereo not given) | inconclusive: 2.82 µM [inhibitor, partial curve, poor fit] | – |
| O=S(=O)(NCc1ccccn1)c1cc(C(F)(F)F)ccc1Cl | inconclusive: 89.1 µM [inhibitor, single point] | – |
| Cc1ccc(N=c2sc(C)c(C)n2C)cc1 | active: 44.7 µM | – |
| CCOC(=O)c1ccc(/C=C2/C=C(c3ccccc3)N(c3ccc(Cl)c(C(=O)O)c3)C2=O)cc1 | active: 11.2 µM | – |

| SMILES | Potency | activity, negative = inhibition |
| --- | --- | --- |
| O=C(c1ccc(Cl)c(Cl)c1)N1CCC(=O)N(C(COCc2cccc(C(F)(F)F)c2)Cc2ccccc2)CC1 (stereo not given) | active: 50.1 µM | – |
| Cc1ccccc1Nc1nnc(-c2ccc(C)c(S(=O)(=O)N3CCCCC3)c2)c2ccccc12 | inactive | – |
| C=CCn1c(-c2oc3nc(-c4ccccc4)cc(-c4ccccc4)c3c2N)n[nH]c1=S | active: 31.6 µM | – |
| O=c1c2ccccc2cnn1CCOc1ccccc1 | inconclusive: 3.55 µM [inhibitor, single point] | – |
| Cc1nc(S(=O)(=O)c2ccc(Cl)cc2)c(N(C)C)o1 | inconclusive: 39.8 µM [inhibitor, single point] | – |
| CCc1c(C)nc2ncnn2c1Nc1ccc(C(C)=O)cc1 | inconclusive: 89.1 µM [inhibitor, partial curve, poor fit] | – |
| COc1ccc(CNC(=O)c2ccc3c(c2)N(Cc2ccccc2)CCS3)cc1 | inconclusive: 39.8 µM [inhibitor, single point] | – |
| Cc1[nH]n2c(=O)cc(Cc3ccccc3)nc2c1C#N | inconclusive: 56.2 µM [inhibitor, partial curve, poor fit] | – |
| C/C(=N\NC(=O)C(=O)Nc1cccc(C(F)(F)F)c1)c1ccc(Cl)s1 | inactive | – |
| CN(C)CCCN(C(=O)c1ccc(Br)s1)c1nc2cc3c(cc2s1)OCCO3 | inconclusive: 14.1 µM [inhibitor, partial curve] | – |
| O=C(O)CCCCCCCCc1cn(CCc2c[nH]c3ccccc23)nn1 | active: 28.2 µM | – |
| Cc1[nH]c2ccccc2c1C(=O)CN1CCC(C)CC1 | inconclusive: 12.6 µM [inhibitor, partial curve, poor fit] | – |
| Cc1ccnc(SCC(=O)Nc2cc(C)on2)n1 | inconclusive: 35.5 µM [inhibitor, partial curve] | – |
| COc1ccc(-c2nnc(SC3CCOC3=O)n2C2CCCCC2)cc1OC (stereo not given) | inconclusive: 39.8 µM [inhibitor, single point] | – |
| CCOc1cc(CN2CCSCC2)ccc1O | inconclusive: 4.47 µM [inhibitor, single point] | – |
| Cc1oc2ncn(CC(C)C)c(=O)c2c1C(=O)N(Cc1ccccc1)C(C)C | inactive | – |
| COc1ccc(-n2cc(CN[C@H]3CCCCNC3=O)c(-c3cccc(F)c3)n2)cc1 | inactive | – |
| Cc1cc(C)cc(C(=O)NC(CC(N)=O)c2ccc(N3CCC(Br)CC3)c([N+](=O)[O-])c2)c1 (stereo not given) | inconclusive: 79.4 µM [inhibitor, single point] | – |
| CCN(CC)C(=O)CSc1nnc(-c2ccco2)n1Cc1ccco1 | active: 39.8 µM | – |
| CSCC[C@H](NC(=O)OC(C)(C)C)C(=O)N/N=C/c1ccc2nccnc2c1 | inconclusive: 44.7 µM [inhibitor, partial curve] | – |
| O=C(CSc1nc2cc(Cl)ccc2o1)Nc1ccc(N2CCOCC2)cc1 | inactive | – |
| COC(=O)c1[nH]c2ccc(Cl)cc2c1NC(=O)CN1CCc2cc(OC)c(OC)cc2C1 | inconclusive: 2.24 µM [inhibitor, partial curve, poor fit] | – |
